# In all, about 33,000 sequences were measured (“E-score (-0.5 to 0.5)”: median about -0.021, highest 2% from about 0.32 on). The list shows a part of the results.
# Molecular target: T1, Zap1 (UniProt P47043)
# T1 sequence: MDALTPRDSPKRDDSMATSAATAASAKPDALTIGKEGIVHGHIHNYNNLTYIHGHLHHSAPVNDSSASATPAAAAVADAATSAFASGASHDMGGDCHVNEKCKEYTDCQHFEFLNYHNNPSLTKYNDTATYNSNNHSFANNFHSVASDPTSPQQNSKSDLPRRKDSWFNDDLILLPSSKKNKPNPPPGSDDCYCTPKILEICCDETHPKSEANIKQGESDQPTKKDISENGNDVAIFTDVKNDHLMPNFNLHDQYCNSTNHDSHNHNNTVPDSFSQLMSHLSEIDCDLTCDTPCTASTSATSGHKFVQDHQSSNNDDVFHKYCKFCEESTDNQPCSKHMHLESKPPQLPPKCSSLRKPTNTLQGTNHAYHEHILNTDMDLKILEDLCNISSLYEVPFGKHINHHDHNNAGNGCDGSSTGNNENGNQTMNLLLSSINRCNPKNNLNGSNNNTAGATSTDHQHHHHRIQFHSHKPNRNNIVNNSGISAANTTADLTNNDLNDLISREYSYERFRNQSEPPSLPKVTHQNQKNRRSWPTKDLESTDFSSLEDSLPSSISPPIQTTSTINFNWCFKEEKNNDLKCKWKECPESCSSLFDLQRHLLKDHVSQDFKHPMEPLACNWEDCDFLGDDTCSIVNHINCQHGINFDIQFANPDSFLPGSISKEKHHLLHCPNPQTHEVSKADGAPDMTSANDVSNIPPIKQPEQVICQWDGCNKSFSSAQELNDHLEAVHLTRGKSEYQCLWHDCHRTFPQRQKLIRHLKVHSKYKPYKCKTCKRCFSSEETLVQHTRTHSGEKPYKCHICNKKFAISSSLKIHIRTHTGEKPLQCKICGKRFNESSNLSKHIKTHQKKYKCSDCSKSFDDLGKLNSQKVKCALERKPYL
# Test: PBM E-score (8-mer binding enrichment) (E-score (-0.5 to 0.5)); higher = stronger / more preferred TF binding; most listed sequences are background and not binding sites
# Settings: protein concentration: 200 nM; construct: GST-full length
# Protocol: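 Universal 'all 10-mer' protein binding microarrays (Agilent AMADID 015681) probed with GST-tagged S. cerevisiae TFs (full-length or DBD) made by in vitro transcription/translation (PURExpress), about 100-200 nM. Bound TF was detected with fluorescent anti-GST. Each ungapped 8-mer (which stands for itself and its reverse complement) is scored by the PBM enrichment score (E-score), a modified Wilcoxon-Mann-Whitney statistic from -0.5 to +0.5, computed with the Universal PBM Analysis Suite. Scale: above 0.35 generally sequence-specific binding.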
row,Sequence,PBM E-score
1,CAGGGATG,-0.142
2,CTGTAACC,0.463
3,GCTCTCCC,-0.0421
4,AAAATATT,0.136
5,ATTATGCA,-0.0552
6,AAAGCATG,-0.135
7,CCGGGAAA,0.00998
8,GGGAGGGA,-0.0783
9,CATAAATC,0.11
10,GATTTGGA,-0.23
11,GAGTAACA,0.135
12,AAGGGTCA,0.439
13,ATCTTCTA,0.0604
14,CACCCTGC,0.331
15,ACGGAAGC,-0.121
16,TACCTCAA,0.288
17,GCATTCCC,-0.0762
18,CGCCAGCG,-0.255
19,ACATGATC,0.207
20,TTGTGAAA,0.239
21,AAGGTTTA,0.226
22,ATCAACTA,0.116

row,Sequence,PBM E-score
1,ACATACCC,0.347
2,GCAAAGGA,0.0999
3,ATATTCCC,-0.0164
4,GAATTGCC,-0.178
5,GACCAACC,0.11
6,AAAGCAGA,-0.0585
7,CAAGAGGA,-0.0426
8,AAGCGAAC,-0.158
9,CGCGCTCA,-0.00437
10,ATACGACC,0.0013
11,CTGGGCTA,-0.128
12,CTATTTCA,0.25
13,ACGAGCAG,-0.18
14,AGCGACGG,-0.0755
15,CGCCAGGA,-0.0955
16,AAATCATA,0.144
17,CATCTTCC,-0.048
18,ACCGTCGT,0.0499
19,ACATTGGC,-0.22
20,CACCGGAC,0.123
21,CGGGCGAA,-0.0912
22,GGGCGAAC,0.0298

row,Sequence,PBM E-score
1,GTCGGTTA,0.189
2,CGGAGAGA,0.0099
3,AGGCGAAA,-0.114
4,TAGCGATA,0.0683
5,CAGGATGG,-0.0657
6,CAGGTTAC,0.424
7,AACCATGA,0.357
8,AATGCATT,0.0421
9,ATCCAACG,-0.139
10,GAATCCAA,-0.0693
11,GACGGGAC,-0.272
12,ACCCAGTG,0.16
13,AAGGAAAC,-0.01
14,ACACACTA,-0.0203
15,GCTGGCCC,-0.306
16,CTTTACAC,0.161
17,AGATATGC,-0.193
18,AAGCGTCC,-0.169
19,CAGCAGAG,-0.136
20,AAGGTACA,0.223
21,CGCTAAAG,0.143
22,AAAAGTCA,-0.12

row,Sequence,PBM E-score
1,CAAAGAGA,0.00712
2,ACTTGTGC,-0.146
3,TCGTTGAA,-0.00772
4,AAATCCTC,-0.279
5,ATAACTCC,0.128
6,CATATACA,0.109
7,CTAGGTAC,0.115
8,ACCGAGCT,-0.0899
9,GGATGCCC,-0.0591
10,CATAGTGA,-0.149
11,CGCAGACA,-0.04
12,ATGGTCAA,0.245
13,CATCCCAG,-0.03
14,ATATTCCA,0.0267
15,CTGCACCC,-0.0926
16,ATGACGGC,0.004
17,CGAGGAAA,-0.0957
18,CTATTTTC,0.0118
19,GCGCTGAC,-0.185
20,GTCACCTA,-0.104

# Source: the supplement of paper PMC3334620
